Data on 81 compounds can be found in ChEMBL document CHEMBL5308541, “MAIP: An Open-Source Tool to Enrich High-Throughput Screening Output and Identify Novel, Druglike Molecules with Antimalarial Activity” (ACS Med Chem Lett, 2023).

SMILES strings stand for the structures. Hit rate of the full screen: of about 150,000 compounds, about 540 (0.36%) showed an effect of 50% or more. This is one part of the list.

In this assay the test system is Plasmodium falciparum. The assay can be described thus: Primary screen in NF54 nanoGlo assay, in single point, at 2uM, 72h; a lower Z score goes with more inhibition. It counts as functional, Erythrocyte. Conditions: timepoint 72 hour.
On to `Cn1c(CN2CCCC2)nnc1C1CCN(Cc2ccc3[nH]ccc3c2)CC1`, for which the “% Inhibition” value came to 1% and the Z score was -0.19.
For `O=C(NC1CCN(CC(F)(F)F)CC1)c1cc(-c2ccncc2)on1`, in that order: -21% and 4.23.
For the compound `CCCN(Cc1ccc2cn[nH]c2c1)C1CCN(c2cc(C)nc(C)n2)CC1`, the “% Inhibition” value worked out at 1% and the Z score is reported as -0.09.
For `O=C(NC1COCC1Cc1ccnc2ccccc12)C1(c2ccc(Cl)cc2)CCC1` (configuration not stated), in that order: -13% and 2.21.
For `O=c1[nH]c(NC[C@H](O)c2ccc(OC(F)F)cc2)nc2ccccc12`, in that order: -1% and 0.29.
For `CCc1nc(C#N)c(N2CCN(c3cc(Nc4ccc(C)cc4)ncn3)CC2)o1`, in that order: -17% and 2.59.
For `FC(F)(F)c1nc(NCCN2CCN(c3ncccn3)CC2)c2nc[nH]c2n1`, the “% Inhibition” value is on record as -9% and the Z score came out at 1.57.
For `O=C(OCc1ccccc1)N1CCO[C@H](c2nc(-c3c[nH]c4ncccc34)cs2)C1`, in that order: -2% and 0.46.
For `CN1CCN(c2ccc(CNC3CCC(N)CC3)cn2)CC1` (configuration not stated), in that order: -5% and 1.08.
For `CCN(C(=O)c1ccc2c(c1)NC(=O)C2)c1ccc2[nH]ccc2c1`, in that order: -1% and 0.19.
With `Nc1ccnc2ccc(C(F)(F)F)cc12`, the “% Inhibition” value is on record as 2% and the Z score is on record as -0.4.
In the case of `Cc1noc(C)c1C(C)(C)NC(=O)Cc1ccc2c(c1)CCCC2`, the “% Inhibition” value was 2% and the Z score is -0.3.
In the case of `Cn1cc(Nc2cccc(NC(=O)c3ccc4[nH]cnc4c3)c2)cn1`, the “% Inhibition” value is on record as -4% and the Z score is reported as 0.92.
For `CN(C(=O)Nc1cccc(Cl)c1F)C1COCC1O` (configuration not stated), in that order: 0% and 0.09.
As for `Cc1cc(NCCCN2CCC[C@H](O)C2)c2cc(F)ccc2n1`, the “% Inhibition” value was determined as 24% and the Z score is on record as -4.1.
Take `CCc1cccc2c(C(=O)[C@H](Nc3ccc(NC(=O)CN4CCOCC4)cc3)c3ccccc3)c[nH]c12`: the “% Inhibition” value is reported as -4% and the Z score was determined as 0.6.
For `CN1CCCCC1CN1CCN(c2cc(N3CCCC(CO)C3)ncn2)CC1` (configuration not stated), in that order: -8% and 1.49.
For `Cc1noc(-c2ccccc2)c1NC(=O)c1cccc(Nc2cnn(C)c2)c1`, in that order: 0% and 0.08.
Regarding `CCN(Cc1cc(F)ccc1-n1cccn1)CC1CCN(C2CCN(C)CC2)CC1`, the “% Inhibition” value amounted to 16% and the Z score was -2.76.
For `CC(C)[C@H](NC1CCN(CCC(F)(F)F)CC1)c1nc(-c2cccnc2)no1`, the “% Inhibition” value was -8% and the Z score came to 1.39.
Take `NC(=O)Cn1cc(-c2cccc3c2CCCC3)nn1`: the “% Inhibition” value came to 1% and the Z score is -0.12.
`OC[C@H]1CCCCN1CCNCc1coc(-c2ccccc2)n1`: the “% Inhibition” value is -4% and the Z score was found to be 0.7.
For `CNc1nc(N[C@H]2CCCN(Cc3ccc(CC(C)C)cc3)C2)ncc1F`, in that order: -8% and 1.62.
For `Cc1ccccc1-c1cccc(CNCCCN2CCC[C@H](O)C2)c1`, in that order: 37% and -7.91.
For `Nc1nc(NCc2ccccc2)nc(N2C3CCNCC2CC3)n1` (configuration not stated), in that order: 1% and -0.31.
On to `CCc1c(C(=O)NCC2([C@H](O)c3ccccc3)CC2)cnn1C(CC)CC`, for which the “% Inhibition” value was -11% and the Z score came to 2.15.
For `COC1CCN(C2CCCC2NC(=O)Nc2cc(-c3cccnc3)ccc2C)C1` (configuration not stated), in that order: 2% and -0.27.
For `CCCNc1cc(N2CCC[C@H](CCC(=O)NCCN3CCCCCC3)C2)ncn1`, in that order: 11% and -2.11.
For `FC(F)(F)c1ccc(O[C@H]2CCN(c3ccnc(C(F)(F)F)c3)C2)nc1`, in that order: -10% and 1.57.
Take `O=C(C1CCCCC1)N1CC[C@H](Nc2nc(C(F)(F)F)nc3nc[nH]c23)C1`: the “% Inhibition” value is -7% and the Z score was 1.2.
For `COCCN1CC[C@H](CNC2CCN(c3ncc4ccc(F)cc4n3)CC2)C1`, in that order: 58% and -10.01.
For `CC(c1ccccc1)N1CCC(NC2CC3CCCC(C2)N3C)C1` (configuration not stated), in that order: 15% and -2.69.
For `FC(F)(F)c1cc(-c2noc(-c3ccc(Nc4cccnc4)cc3)n2)ccn1`, in that order: -9% and 1.57.
Consider `CCN1CCC(N(CC2CCN(Cc3ccccc3C)CC2)C[C@H]2CCCO2)CC1`, for which the “% Inhibition” value is 1% and the Z score is on record as -0.12.
For `C#CCOc1ccc(CNC2CCN(CC(F)F)CC2)cc1`, in that order: -8% and 1.71.
For `CC1(N2CCOCC2)CCC(Nc2cccc(-c3cnco3)c2)CC1` (configuration not stated), in that order: -5% and 0.71.
With `CCCCN1CCC(CNC(=O)c2cccc([C@H]3CCNC3)c2)CC1`, the “% Inhibition” value is listed as -9% and the Z score came to 1.55.
For `CCS(=O)(=O)c1ccc(O)c(Nc2ncnc3cc(OC)c(OC)cc23)c1`, in that order: 6% and -1.11.
For `CC1CN(c2ccc(Nc3ncncc3-c3ccccc3)cn2)CC(C)O1` (configuration not stated), in that order: -3% and 0.44.
On to `CCN(Cc1noc(C2CCC2)n1)C(=O)NCc1cc2ccccc2o1`, for which the “% Inhibition” value is listed as -13% and the Z score is reported as 2.59.
For `COc1ccc(C2N3CCc4ccccc4C3CN2S(=O)(=O)c2ccc(OC)c3ncccc23)cc1` (configuration not stated), in that order: 2% and -0.3.
With `OCCN1CCN(C2CCN(Cc3cnn4cccnc34)CC2)CC1`, the “% Inhibition” value was -6% and the Z score is on record as 1.08.
Consider `FC1(F)CC[C@H](Nc2nccc3[nH]cnc23)C1`, for which the “% Inhibition” value was 8% and the Z score is on record as -1.52.
For `NCCc1nc(NCCc2nc(-c3ccccn3)no2)c2ccccc2n1`, in that order: -5% and 0.94.
For `COc1ccc(CN(Cc2cc(=O)n3nc(-c4ccccc4)sc3n2)c2ccc(Cl)cc2)cc1`, in that order: -10% and 1.75.
`OC[C@H]1C=C[C@@H](Nc2ncc(Cl)c(N[C@@H]3C=C[C@H](CO)C3)n2)C1`: the “% Inhibition” value is reported as 6% and the Z score is recorded as -1.35.
For `O=C1CN2CCN(S(=O)(=O)c3cccc(Cl)c3)C[C@@H]2COc2ccc(-c3ccc(F)cc3F)cc2N1`, in that order: -5% and 0.8.
As to `C[C@@H](c1cc2ccccc2o1)N(C)C(=O)c1csc(COc2ccc(F)cc2)n1`, the “% Inhibition” value is -14% and the Z score turned out to be 2.08.
Consider `COc1ccc([C@@H](CNc2ncccc2-c2nc(C)no2)c2c[nH]c3ccccc23)cc1`, for which the “% Inhibition” value is listed as -6% and the Z score is 1.09.
In the case of `C[C@H]1CN(c2cccc3cnccc23)CCN1c1ncnc2[nH]cnc12`, the “% Inhibition” value was -12% and the Z score was 2.62.
Consider `CCN(C)C1(CNc2ncnc3cc[nH]c23)CCCCC1`, for which the “% Inhibition” value is listed as -1% and the Z score came out at 0.15.
For `CC1(C)C[C@@H](O)CCN(C(=O)c2ccc(NC3=NCCC3)cc2)C1`, in that order: -6% and 1.16.
`CC(C)N(Cc1ccccc1)C(=O)C(=O)c1cn(CC(=O)N2CCOCC2)c2ccccc12`: the “% Inhibition” value is on record as -8% and the Z score is 1.15.
In the case of `CCC1(NC(=O)Nc2ccncc2Br)CCOCC1`, the “% Inhibition” value is reported as -2% and the Z score is recorded as 0.43.
For `CCN1CCN(C(=O)CCC2CCN(Cc3cccc4cnccc34)CC2)CC1`, in that order: 4% and -0.61.
On to `CC(C)CC(=O)Nc1ccc(NCC(=O)Nc2cccc3c2N=S=N3)cc1`, for which the “% Inhibition” value is -7% and the Z score is 1.01.
For `O=C(NCCNc1nccc(N2CCC[C@H](O)C2)n1)c1ccncc1`, in that order: -1% and 0.17.
As for `Cc1nonc1CN(C)Cc1nc2cc(Cl)ccc2[nH]1`, the “% Inhibition” value is given as -13% and the Z score is recorded as 2.29.
Consider `COc1cc(OC)c(NC(=O)c2ccc3[nH]ccc3c2)cc1F`, for which the “% Inhibition” value stood at 4% and the Z score is -0.78.
For `CN1C(C)(C)CC(NC(=O)c2ccc(-c3cc(-c4cccc(C(F)(F)F)c4)n[nH]3)cc2)CC1(C)C`, in that order: 40% and -7.08.
For `Cc1ccc(-c2cc(C(=O)N3CCC(CCn4ccnc4C)CC3)[nH]n2)o1`, in that order: 1% and -0.13.
For `CC(C)c1nnc2ccc(NC(=O)N3CCC(F)(F)C3)cn12`, in that order: -1% and 0.17.
In the case of `COc1ccc(-c2cc3ncnc(NCC[C@@](O)(c4nccn4C)C(F)(F)F)c3s2)cc1`, the “% Inhibition” value is -2% and the Z score worked out at 0.3.
For `CN(CCN1CCOCC1)C(=O)[C@@H]1C=CCN1`, in that order: 1% and -0.21.
For `CCN(C)CCN(C)C(=O)c1ccc(-c2ccc3cnc(N)cc3c2)cc1`, in that order: 19% and -3.79.
For `CS(=O)(=O)c1cnc(NCCN2CCOCC2)nc1[C@H]1CCCNC1`, in that order: 2% and -0.33.
For `CN(C)c1nc(NC2CCN(Cc3cccnc3)CC2)ncc1F`, the “% Inhibition” value is on record as -9% and the Z score is listed as 1.94.
Turning to `CCN(C(=O)c1cc(C2CC2)nc2ccc(OC)cc12)[C@@H](C)CS(=O)(=O)CC`, the “% Inhibition” value was determined as 1% and the Z score is listed as -0.13.
For `Cn1cc(-c2csc(CNc3ccccc3CN3CCC(CO)CC3)n2)cn1`, the “% Inhibition” value is listed as -10% and the Z score is on record as 2.03.
For `Cc1[nH]c2ccccc2c1CC(=O)Nc1c(F)cccc1OCc1ccccc1`, in that order: 0% and 0.01.
As to `Cc1ccc(-c2ccnc(N3CCO[C@H](C(=O)N(C)CC(C)C)C3)n2)c(C)n1`, the “% Inhibition” value is listed as -12% and the Z score is given as 2.05.
For `COc1cccc([C@H](C)N2CCN(C(=O)c3ccc(Cl)c4cccnc34)CC2)c1`, in that order: 12% and -2.5.
For `CC1CCCC(N2CCC(NCCCn3ccnc3)CC2)C1` (configuration not stated), in that order: 15% and -2.57.
For `CN1CCC(NC2CC3CCCC(C2)N3Cc2ccccc2)CC1` (configuration not stated), in that order: -1% and 0.27.
For `CC(C)[C@H]1NC(=O)[C@@H](C)NC(=O)CCCN(C(=O)CC[C@@H]2CCCN3CCCC[C@H]23)CCCNC1=O`, the “% Inhibition” value is -1% and the Z score is given as 0.19.
For `CCN(C)CC1CCN(c2ccc(C#N)c(N3CCC(CN(C)CC)C3)n2)C1` (configuration not stated), in that order: 14% and -3.01.
Consider `O=C(NCCc1c(C(F)(F)F)[nH]c2ccccc12)c1cc(-c2cccc(O)c2)on1`, for which the “% Inhibition” value turned out to be 1% and the Z score was -0.16.
As to `CCc1nn(C)c(NC(=O)CCC(=O)N(C)C2CCCCC2)c1C`, the “% Inhibition” value is reported as -11% and the Z score is reported as 2.17.
Regarding `Cc1cc(NC(=O)Cn2cc(-c3ccc4[nH]ccc4c3)cn2)n(-c2ccccn2)n1`, the “% Inhibition” value was -17% and the Z score is reported as 2.96.
For `CNc1nc(NCC2CCN(Cc3nc(C)c(C)o3)CC2)ncc1Br`, in that order: -6% and 1.05.
`COc1ccc2nc(C(=O)Nc3nccn3Cc3ccc(Br)cc3)ccc2c1`: the “% Inhibition” value is on record as -5% and the Z score is given as 0.81.
